A short description of this data set: in vitro. Particulars: human, serum, 100% human serum (Sigma H1388), 0.2 mM (~0.7 mg/mL) DCP, 37°C, acetonitrile/0.1% formic acid extraction, LC-MS, UV 220 nm peak area normalized to 0 h (100%), three independent experiments. As to the method:
The DCPs were incubated in human serum (Sigma, cat# H1388) at a concentration of 0.2 mM (~ 0.7 mg/mL) at 37°C for 24 h. All samples (time 0 and 24 h) were flash frozen in liquid nitrogen at—20°C until sample preparation. To extract DCPs, 50 μL of sample was added to 100 μL of ice cold acetonitrile with 0.1% formic acid and mixed thoroughly with a Vortex mixer. The samples were then centrifuged at 14000 × rpm at 4°C for 30 minutes. 80 μL of the supernatant from each sample was diluted into 80 μL of water containing 0.1% formic acid and analyzed using LC-MS. From the HPLC UV trace (at 220 nm), the DCP peak area of the 24 h incubation sample was integrated and normalized to the DCP peak area of the 0 h incubation sample (set as 100%).

Where a SMILES comes first, the peptide text is derived from it. Bridges are numbered along the chain shown (N, C = ends).

A word on the amount remaining: it is the share of the starting amount still present when the sample was taken. Low readings indicate more turnover, high ones less turnover. The compound `CC[C@H](C)[C@@H]1NC(=O)[C@H](CCCCN)NC(=O)[C@H](CO)NC(=O)[C@@H]2CSSC[C@@H]3NC(=O)[C@H](Cc4ccc(O)cc4)NC(=O)CNC(=O)[C@H](Cc4ccccc4)NC(=O)[C@H](CCC(N)=O)NC(=O)[C@H](CO)NC(=O)[C@H](CSSC[C@H](NC(=O)[C@H](CCC(=O)O)NC(=O)CNC(=O)[C@@H](N)C(C)C)C(=O)N[C@@H](C(C)C)C(=O)N[C@@H](CCCNC(=N)N)C(=O)NCC(=O)N[C@@H](CCCNC(=N)N)C(=O)N2)NC(=O)[C@H](CSSC[C@@H](C(=O)NCC(=O)O)NC(=O)[C@H](Cc2ccc(O)cc2)NC(=O)[C@H](CCCCN)NC(=O)[C@@H]2CCCN2C(=O)CNC(=O)[C@H](CCCCN)NC(=O)CNC3=O)NC(=O)[C@H](CO)NC1=O` [Ig-AMP-1] (H-VGECVRGRCSKISCCSQFGYCGKGPKYCG-OH; disulfide 4-15, 9-21, 14-28) gave a share remaining at 24 h of 100%.

The record behind these values is paper PMC10977726 (PLOS ONE, 2024).
